In PubChem BioAssay AID1159614 (National Center for Advancing Translational Sciences (NCATS), 2016):
Out of some 45,000 compounds screened, about 65 (0.1%) were called active. The call rests on the fitted dose curve; in most records, active means well fitted activation curve with a large enough effect; inconclusive means small, poorly fitted or top-dose-only effect; inactive means no such curve, though single readings can be large or run the other way. This is one part of the list.

target: Galactocerebrosidase (Homo sapiens) (UniProt P54803); test: A Novel Cell-Based Assay to Identify Small Molecules for B -Galactocerebrosidase; details: 145M-Twi-hGALC-G270D cells (Twitcher mouse brain line with human GALC G270D), HMU-beta-Gal fluorescence, 48 h; series mostly up to 57.5 µM; activation: at the top concentration; further: 0% is about no effect; nearly all actives have a fitted effect of over 65% in size
How it was run: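 Fluorescence readout: HMU-β-gal cleavage by mutant GALC (0.1 mM final, citrate/phosphate pH 5.2 with 1 mg/mL taurocholate), stopped with carbonate/bicarbonate plus Triton X-100. Cells: murine Twitcher 145M-Twi expressing human G270D GALC; qHTS for activators.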

Chain of UniProt P54803 (P54803 whole entry, looked up): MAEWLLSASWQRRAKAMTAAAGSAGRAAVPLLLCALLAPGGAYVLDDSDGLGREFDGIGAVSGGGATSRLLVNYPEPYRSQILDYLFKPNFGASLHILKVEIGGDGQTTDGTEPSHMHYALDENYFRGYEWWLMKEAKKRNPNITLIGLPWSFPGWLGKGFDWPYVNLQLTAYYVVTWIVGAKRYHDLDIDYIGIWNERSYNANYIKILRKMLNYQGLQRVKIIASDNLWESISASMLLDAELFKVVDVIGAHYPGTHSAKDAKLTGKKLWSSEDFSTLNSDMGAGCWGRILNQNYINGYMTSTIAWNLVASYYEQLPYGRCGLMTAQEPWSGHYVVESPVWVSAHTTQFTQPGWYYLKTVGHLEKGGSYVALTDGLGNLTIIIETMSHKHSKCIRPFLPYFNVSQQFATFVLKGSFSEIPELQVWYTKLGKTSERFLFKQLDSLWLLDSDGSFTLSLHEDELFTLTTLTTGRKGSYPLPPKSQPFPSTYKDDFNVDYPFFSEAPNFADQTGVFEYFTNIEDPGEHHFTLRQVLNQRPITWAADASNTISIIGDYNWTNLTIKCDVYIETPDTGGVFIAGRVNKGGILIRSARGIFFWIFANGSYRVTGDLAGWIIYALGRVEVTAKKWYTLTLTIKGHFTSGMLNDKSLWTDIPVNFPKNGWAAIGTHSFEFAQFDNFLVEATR

activation, inactive:
CCN(Cc1ccccc1)C(=O)C1CCN(S(=O)(=O)c2c(C)noc2/C=C/c2ccc(C)cc2)CC1 -10.2%
COc1ccc(Nc2cc(C)c3cc(NC(=O)Cc4c(F)cccc4Cl)ccc3n2)cc1 -7.41%
Cc1ccc2nc(-c3ccc(NC(=O)COc4ccc(Cl)c(C)c4)cc3)sc2c1 -0.713%
CCOC(=O)c1ccc(NC(=O)C2CCN(S(=O)(=O)c3ccc(C)cc3)CC2)cc1 -19.7%
COc1ccccc1CNC(=O)CS(=O)Cc1nc(-c2ccc(OC)c(OC)c2)oc1C (configuration not stated) -12.6%
CC(=O)c1nn(-c2ccc(OC(F)(F)F)cc2)nc1Nc1ccc(C)cc1 -1.64%
COc1ccccc1CNC(=O)c1sc2nc3n(c(=O)c2c1C)CCC3 -22.1%
CCOc1ccc(CNS(=O)(=O)c2ccc(-c3cc(C(F)(F)F)on3)s2)cc1 -10.5%
CCOc1ccc(-c2cc(C(=O)NCc3ccc(C)cc3)c3ccccc3n2)cc1 -6.57%
CCCNc1ccc(-c2nc(-c3ccncc3)no2)cc1[N+](=O)[O-] -0.934%
CCOc1ccc(Cl)cc1C1CC(=O)Nc2cc(OC)c(OC)c(OC)c21 (configuration not stated) -0.755%
Cc1cccc(N2CCN(C(=O)c3ccc(NC(=O)c4nsc5ccccc45)cc3)CC2C)c1 (configuration not stated) 1.12%
CCn1c(SCc2ccccc2F)nc(=O)c2c(C(=O)OC)cc(C3CC3)nc21 -24.1%
CCCC(CCC)C(=O)Nc1cccc(-c2cn3cccnc3n2)c1 -22.8%
Cc1ccc(C)c(N2CCN(C(=O)c3ccc4[nH]c(C)c(C)c4c3)CC2)c1 -5.22%
NC(=O)C(c1ccccc1)(c1ccccc1)[C@@H]1CCN(CCc2ccc3c(c2)CCO3)C1 -4.29%
CCOC(=O)C1CCCN(C(=O)Cn2ncc3c([nH]c4ccc(C)cc43)c2=O)C1 (configuration not stated) -8.78%
COc1ccc(CNC(=O)c2c(Nc3ccccc3C)sc(C(=O)c3ccccc3)c2N)cc1 -12.2%
COc1ccccc1CNC(=O)CN1C(=O)CCc2cc(S(=O)(=O)N3CCOCC3)ccc21 -28.3%
O=C(Nc1ccc2nc(SCC(=O)N3CCCC3)sc2c1)c1ccccc1F -11.3%
COc1cc2[nH]c(=O)n(CCCC(=O)NCc3ccccc3)c(=O)c2cc1OC -6.13%
CCc1ccc(NC(=O)CCCc2nc(-c3ccco3)no2)cc1 -44.4%
COC(=O)c1c(NC(=O)CCCOc2ccccc2C)sc2c1CCC(C)C2 (configuration not stated) -22.4%
Cc1ccc(OCc2nc(-c3ccc(C(=O)NCCc4ccc(S(N)(=O)=O)cc4)cc3)oc2C)cc1 -9.21%
CCOc1ccc(NC(=O)CNS(=O)(=O)c2ccc(Br)s2)cc1 -43.8%
CCOC(=O)c1cccc(N)c1 -13.7%
CCOC(=O)c1sc2ccccc2c1S(=O)(=O)N1CCN(c2ccccc2)CC1 6.82%
Cc1ccc(NC(=O)CN2C(=O)CCc3cc(S(=O)(=O)N4CCCCC4)ccc32)cc1N(C)C -4.87%
CC1CN(C(=O)N2CCC(C(=O)NCc3ccco3)CC2)c2cc(Cl)ccc2O1 (configuration not stated) -15.2%
COc1ccc(NC(=O)c2cc(-c3ccccc3O)no2)cc1 0.682%
CCCCN(CCCC)CCNC(=O)c1cc(=O)[nH]c2ccc(S(=O)(=O)N3CCCCCC3)cc12 -0.389%
Cc1ccc(CNC(=O)C2CCCN(S(=O)(=O)c3ccc4c(ccn4C)c3)C2)cc1 (configuration not stated) -12.2%
CN1CCN(C(=O)Nc2cccc(Cl)c2)c2cccnc21 -13.8%
CC(C)c1ccc(NC(=O)CSc2nc(=O)n(Cc3cccnc3)c3c2CCC3)cc1 -1.3%
Cc1ccc(Cl)cc1NC(=O)CSc1nc(C)c(C)c(C)c1C#N -10.1%
CCc1cnc2c(c1SCC(=O)Nc1cc(Cl)ccc1OC)c(=O)n(C)c(=O)n2C -11.6%
COc1ccc(CCNC(=O)Cn2cc(S(=O)(=O)Cc3cccc(Cl)c3)c3ccccc32)cc1OC -11.7%
COc1ccc(-c2noc(CSc3nnc(-c4ccc(Cl)cc4)n3C)n2)cc1OC -5.92%
CCOC(=O)c1cnc2c(C(F)(F)F)cccc2c1Nc1cccc(C(=O)OC)c1 -7.02%
CCOc1ccccc1NC(=O)CSc1nc2c(oc3ccccc32)c(=O)n1Cc1ccco1 -0.824%
COc1ccccc1Nc1c2c(nc3ccc(NC(=O)c4cccc(F)c4)cc13)CCCC2 -10.1%
O=C(NC1CCCC1)c1ccc2c(c1)N(Cc1ccccc1Cl)C(=O)c1ccccc1S2 -8.36%
Cc1cc(C)c(NC(=O)CSc2ncc(S(=O)(=O)c3ccc(C(C)(C)C)cc3)c(=O)[nH]2)c(C)c1 7.58%
CCc1ccc(CNC(=O)C2CCN(C(=O)N3CC(CC)Oc4ccc(C)cc43)CC2)cc1 (configuration not stated) -8.54%
Cc1ccc(OCC(=O)N(Cc2sccc2C)C2CCS(=O)(=O)C2)cc1 (configuration not stated) -13.7%
O=C1c2oc3ccccc3c(=O)c2C(c2cccc(Br)c2)N1c1ccccn1 (configuration not stated) -7.68%
Cc1ccccc1NC(=O)Nc1cccs1 -5.69%
CNC(=O)c1ccc(NC(=O)COc2ccc(-c3nn(C)c(=O)c4ccccc34)cc2)cc1 -10.5%
CCn1ccnc1CC1COc2ccccc2O1 (configuration not stated) -18.8%
CCCCN(C)C(=O)Cn1cnc2sc(C)c(S(=O)(=O)N3CCN(c4ccccc4OC)CC3)c2c1=O -12.8%
CCOc1ccc(NC(=O)Cn2c(CCC(=O)O)ccc2-c2ccc(C)cc2)cc1 -7.33%
Clc1ccc(Nc2nc(-c3ccccc3)c3cc(Cl)ccc3n2)cc1 2.75%
COc1ccc(-c2noc(CSc3nnc(-c4ccncc4)n3-c3ccc(C)c(C)c3)n2)cc1 -11.8%
CCOC(=O)c1[nH]c2ccccc2c1NC(=O)c1cc(OCC)c(OCC)c(OCC)c1 -14.8%
Cc1cc(=O)n2nc(N3CCC(C(=O)NCc4ccc(Cl)cc4)CC3)sc2n1 -17.7%
Cc1ccc2onc(CC(=O)N3CCN(c4cccc(C)c4C)CC3)c2c1 -11.5%
Cc1ccc(C)c(CN2C(=O)c3ccccc3Sc3ccc(C(=O)NCc4ccc5c(c4)OCO5)cc32)c1 -14.6%
COc1ccc(Cn2c(CO)cnc2SCC(=O)NCc2ccco2)cc1 -9.19%
COc1cc(NC(=O)CC(C)S(=O)(=O)c2cc3c4c(c2)CCN4C(=O)CC3)cc(OC)c1 (configuration not stated) -14.2%
Cc1ccccc1C(=O)Nc1cccc(C(=O)OCc2cc(=O)n3nc(C4CC4)sc3n2)c1 -8.63%
COc1ccc(-c2nc(Cn3c(SCc4ccc(F)cc4)nc4cccnc43)c(C)o2)cc1 -10.4%
CC(=O)c1cccc(NC(=O)c2ccc3nc(C(C)C)oc3c2)c1 -6.06%
COc1ccc(NC(=O)c2c(NC(=O)c3cccc(C)c3)sc3c2CCCC3)cc1 -8.69%
COc1cc2nc(SCC(=O)Nc3cccc(C)c3)n3nc(-c4ccccc4)nc3c2cc1OC -21.6%
Cc1ccc([N+](=O)[O-])cc1S(=O)(=O)N1CCn2cccc2C1c1ccc(F)c(F)c1 (configuration not stated) -11.3%
COc1ccc(N2CCN(C(=O)c3nn(-c4ccc(C)cc4)c(=O)n(C)c3=O)CC2)cc1 -21.4%
Cc1ccc(CSc2nc3c(c(=O)[nH]2)C(c2cccc(F)c2F)CC(=O)N3)cc1 (configuration not stated) -5.21%
CCOC(=O)c1cc(-c2ccc(OC)cc2)nn1Cc1ccccc1 1.23%
Cc1ccc(OCC(=O)Nc2ccc3nc(SCC(=O)N(C)c4ccccc4)sc3c2)cc1 -37.1%
COc1ccc(NC(=O)c2sc3nc[nH]c(=O)c3c2C)cc1OC -9.35%
COc1cc2ncc3c(-c4ccccc4)nn(-c4ccc(C)cc4)c3c2cc1OC -8.24%
Cn1nnnc1SCCNCc1ccccc1Cl -3.43%
CC(C)c1ccc(NC(=O)C(Cc2ccccc2)NS(=O)(=O)c2ccc3c(c2)CCC(=O)N3)cc1 (configuration not stated) -25.8%
COc1cccc(CNC(=O)CN(C)S(=O)(=O)c2ccc3c(c2)c(=O)n(C)c(=O)n3C)c1 -2.78%
COc1ccc(Cl)cc1NC(=O)Cn1cc(S(=O)(=O)Cc2cccc(Cl)c2)c2ccccc21 -11.8%
N#C/C(=C\c1ccc(-c2ccc(C(=O)O)cc2)o1)c1nc2ccccc2[nH]1 -8.81%
CN1CCc2c(sc3c2C(=O)NC(c2ccc(OC(=O)c4ccc(Cl)cc4)cc2)N3)C1 (configuration not stated) 2.03%
CC(=O)N1CCc2cc(Br)cc(S(=O)(=O)CCC(=O)NCCc3ccc(Cl)cc3)c21 -3.92%
CC(C)=CCC/C(C)=C/CO -14.2%
CCCCOc1ccc(C(=O)N(Cc2nc(-c3ccc(Cl)cc3)no2)C(C)C)cc1 -17.7%
Cc1ccc(Cn2c(C)c(CNCc3ccc(OC(C)C)cc3)c(C(=O)O)c2C)cc1 -5.57%
COc1ccc(CC(=O)NCCc2sc(-c3cccc(F)c3)nc2C)cc1 -4.05%
CCOc1ccc(CCNC(=O)c2ccc(CS(=O)Cc3ccc(Cl)cc3)o2)cc1 (configuration not stated) -40.6%
Cn1c(=O)oc2cc(S(=O)(=O)N3CCC(C(=O)N4CCN(c5cccc(Cl)c5)CC4)CC3)ccc21 -33.7%
CC(C)c1ccc(NC(=O)CCNS(=O)(=O)c2cccc3nsnc23)cc1 10.7%
CCC(C(=O)OCCN(CC)CC)c1ccccc1 (configuration not stated) -12.5%
CN1CCN(CCC(=O)Nc2ccc(Cl)cc2)CC1 -6.94%
COc1ccc(C(=O)Oc2ccc(C(c3c(C)[nH][nH]c3=O)c3c(C)[nH][nH]c3=O)cc2OC)cc1 -23.1%
CCOc1ccc(NC(=O)c2oc3ccccc3c2NC(=O)Cc2cccc(C)c2)cc1 0.13%
COC(=O)Nc1nc2ccc(S(=O)c3ccccc3)cc2[nH]1 (configuration not stated) -13.5%
COc1ccc(OC)c(NS(=O)(=O)c2ccc(Br)s2)c1 1.92%
CCn1cc(C(=O)O)c(=O)c2cc3c(cc21)OCO3 -6.37% [at 23.8 µM]
O=C(COc1ccc(Cl)cc1)NCCc1csc(-c2cccc(F)c2)n1 -18%
Cc1ccc(NC(=O)Cn2c(=O)ccc3cc(S(=O)(=O)N4CCC(C)CC4)ccc32)cc1C -12.1%
CCCN1C(C(=O)c2ccccc2)=C(OC(=O)c2ccc(C)cc2)c2ccccc2S1(=O)=O -7.61%
Cc1cccc(NC(=O)CSc2nc(=O)n(Cc3cccnc3)c3c2CCC3)c1 2.06%
Cn1ncc(C(=O)N2CCN(c3ccccc3F)CC2)c1C1CCN(C(=O)OC(C)(C)C)CC1 -7.53%
